# PubChem BioAssay AID720709 (National Center for Advancing Translational Sciences (NCATS), 2013)
# In all, about 360,000 compounds went through this assay and about 520 (0.14%) were called active. The shares of active, inactive and inconclusive entries below differ from those in the screen. Calls follow the shape of the dose curve; as a rule, active = well fitted inhibition curve with a large enough effect; inconclusive = small, poorly fitted or top-dose-only effect; inactive = no such curve, though single readings can be large or run the other way. No potency is given beside an inconclusive call; the fits are too rough.
# Target: Rap guanine nucleotide exchange factor 3 (Homo sapiens) (UniProt O95398)
# Chain of UniProt O95398 (O95398 whole entry, looked up): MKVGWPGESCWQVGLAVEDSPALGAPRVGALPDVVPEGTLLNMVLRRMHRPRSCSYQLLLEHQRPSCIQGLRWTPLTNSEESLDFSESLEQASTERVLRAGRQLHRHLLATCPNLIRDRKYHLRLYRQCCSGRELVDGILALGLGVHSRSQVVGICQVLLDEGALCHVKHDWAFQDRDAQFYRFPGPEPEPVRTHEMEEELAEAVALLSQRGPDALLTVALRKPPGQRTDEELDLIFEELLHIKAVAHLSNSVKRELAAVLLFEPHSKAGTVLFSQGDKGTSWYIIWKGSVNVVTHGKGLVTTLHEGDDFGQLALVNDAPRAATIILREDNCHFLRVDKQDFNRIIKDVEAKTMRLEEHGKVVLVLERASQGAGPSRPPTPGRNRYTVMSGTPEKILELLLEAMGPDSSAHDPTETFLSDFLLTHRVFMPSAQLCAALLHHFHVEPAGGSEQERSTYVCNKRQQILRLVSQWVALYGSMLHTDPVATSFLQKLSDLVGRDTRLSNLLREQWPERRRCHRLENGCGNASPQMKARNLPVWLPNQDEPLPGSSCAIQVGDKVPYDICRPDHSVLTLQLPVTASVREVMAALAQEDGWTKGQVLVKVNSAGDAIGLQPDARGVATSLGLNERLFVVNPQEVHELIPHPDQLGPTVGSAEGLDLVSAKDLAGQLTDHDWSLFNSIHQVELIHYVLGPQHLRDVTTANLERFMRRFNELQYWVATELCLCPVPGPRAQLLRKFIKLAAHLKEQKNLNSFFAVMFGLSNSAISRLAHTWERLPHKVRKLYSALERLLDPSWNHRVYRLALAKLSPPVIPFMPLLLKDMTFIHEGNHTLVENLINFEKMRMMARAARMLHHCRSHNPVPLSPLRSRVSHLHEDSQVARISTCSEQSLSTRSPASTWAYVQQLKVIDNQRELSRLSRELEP
# Test: qHTS for Antagonist of cAMP-regulated guanine nucleotide exchange factor 3 (EPAC1): primary screen; also: nearly all actives have a fitted effect of over 50% in size;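 as to activity change, negative = inhibition: plate controls were vehicle for no effect and positive control for full effect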
# Settings: EPAC1 GEF assay, Rap1b-BODIPY-GDP exchange fluorescence; activity change, negative = inhibition: at 115 µM (top of the series)
# Potency is read from the fitted curve at half-maximal effect; tags tell the direction and shape of the fitted curve.
SMILES,Potency,"activity change, negative = inhibition"
CS(=O)(=O)c1nc(-c2ccc(F)cc2)cc(C(F)(F)F)n1,"inconclusive [inhibitor, partial curve, poor fit]",
c1ccc(-n2nnnc2-c2cnc(-c3cccnc3)nc2-c2cccs2)cc1,"inconclusive [inhibitor, partial curve]",
CC(OC(=O)c1cc(O)c2ccccc2c1O)C(=O)Nc1ccc(C(N)=O)cc1 (centres undefined),"inconclusive [inhibitor, partial curve, poor fit]",
Oc1cc2c(cc1O)[C@H]1c3ccc(O)c(O)c3OC[C@@]1(O)C2,"inconclusive [inhibitor, single point]",
CCCC[C@@H]1CNC(=O)C(=O)N1CCc1cccc(F)c1,"inconclusive [inhibitor, full curve, poor fit]",
CCn1ccnc1CN(C)Cc1cn(-c2ccccc2)nc1-c1ccc(OC)cc1F,"inconclusive [inhibitor, single point]",
O=S(=O)(c1ccc2ccccc2c1)N1CCN(CCO)CC1,"inconclusive [inhibitor, single point]",
Cc1cc2c(N)cccc2nn1,"inconclusive [inhibitor, single point]",
COc1ccc(S(=O)(=O)Nc2ccccc2C(=O)Nc2nc(-c3ccc(F)cc3)cs2)cc1OC,"inconclusive [inhibitor, single point]",
CCN(CC(=O)Nc1ccccc1C(F)(F)F)C(=O)c1ccccc1Cc1ccccc1,"inconclusive [inhibitor, full curve, poor fit]",
COc1cc(/C=N/NS(=O)(=O)c2ccc(C)c([N+](=O)[O-])c2)cc([N+](=O)[O-])c1O,inactive,
N#C/C(=C/c1ccc(-c2ccccc2)o1)c1nc(-c2cccs2)cs1,"inconclusive [inhibitor, single point]",
COc1ccc(S(=O)(=O)N2CCN(c3ccc(C)cc3C)CC2)cc1OC,"inconclusive [inhibitor, full curve, poor fit]",
COc1ccc(S(=O)(=O)CC(=O)c2cc3cccc(C)c3oc2=O)cc1,"inconclusive [inhibitor, single point]",
CCCCN(C)C(=O)c1nc2ccccn2c1CN1CCN(c2ncccn2)CC1,inactive,
Cc1cc(C)c(S(=O)(=O)Nc2ccc(O)cc2)cc1C,inactive,
COc1ccc2c(c1)OC(=O)CC2c1cc(OC)c(OC)c(OC)c1 (centres undefined),"inconclusive [inhibitor, single point]",
O=C(NCc1ccccc1)C1=C[C@H](c2ccc3c(c2)OCO3)C[C@H](OCc2ccc(CO)cc2)O1,"inconclusive [inhibitor, partial curve]",
CCNC(=S)N/N=C/c1sc(N2CCCCC2)nc1-c1cccs1,active: 89.1 µM,
Cc1cccc(Nc2nnc(SC/C(O)=C(\C#N)c3nc4ccccc4[nH]3)s2)c1,"inconclusive [inhibitor, single point]",
CC(=O)c1ccc(S(=O)(=O)N(CCCO)Cc2cc3cc4c(cc3[nH]c2=O)OCCO4)cc1,"inconclusive [inhibitor, full curve, poor fit]",
Cc1ccc(-c2csc(NC(=O)c3ccc(Br)cc3)c2C(=O)O)cc1,"inconclusive [inhibitor, single point]",

SMILES,Potency,"activity change, negative = inhibition"
CC1CCN(c2ccc3nnc(CCC(=O)Nc4cc(F)ccc4F)n3n2)CC1,"inconclusive [inhibitor, partial curve]",
CCN(CC)S(=O)(=O)c1ccc(N(C)Cc2ccc(C(F)(F)F)cc2)nc1,"inconclusive [inhibitor, partial curve, poor fit]",
N#Cc1ccc(-c2nc3ccc(Br)cn3c2Cc2cccc(Cl)c2)cc1,"inconclusive [inhibitor, full curve]",
COC(=O)C1CSc2[nH]c(=O)sc2C1c1ccc(O)c(OC)c1 (centres undefined),"inconclusive [inhibitor, single point]",
O=C(COC(=O)CNS(=O)(=O)c1cccc(F)c1)NCCc1ccccc1,inactive,
Cc1cc(NC(=O)C(C)Oc2ccc(Cl)cc2Cl)n(-c2ccccc2)n1 (centres undefined),"inconclusive [inhibitor, single point]",
C[C@H](CO)N1C[C@H](C)[C@@H](CN(C)Cc2ccc3c(c2)OCO3)Oc2c(NS(C)(=O)=O)cccc2C1=O,inactive,
CC(C)(C)c1ccc(S(=O)(=O)N(CCCN2CCOCC2)Cc2cccs2)cc1,"inconclusive [inhibitor, full curve, poor fit]",
C=C(C)COc1ccc(-c2[nH]ncc2-c2ccccc2OC)c(O)c1,"inconclusive [inhibitor, single point]",
CC1(C)CC(=O)C2=C(C1)NC1=C(C(=O)c3ccccc31)C2c1ccccc1 (centres undefined),"inconclusive [inhibitor, single point]",
Cc1nc2c(=O)[nH]c(=S)[nH]c2[nH]c1=O,"inconclusive [inhibitor, full curve, poor fit]",
CCN(CC(=O)NCCc1ccc(S(N)(=O)=O)cc1)Cc1ccccc1,"inconclusive [inhibitor, partial curve]",
CCc1nc2ccc(C(=O)Nc3ccc(NC(C)=O)cc3)cn2c1N(C)CCC(C)C,"inconclusive [inhibitor, full curve, poor fit]",
O=C(N/N=C/c1ccccc1OC(=O)c1ccc2c(c1)OCO2)c1cccc(F)c1,inactive,
C=CCn1c(SCC(=O)Nc2sc3c(c2C#N)CCC(C)C3)nc2cc(C(=O)O)ccc2c1=O (centres undefined),"inconclusive [inhibitor, full curve]",
Cc1nc(/C(N)=N/OC(=O)c2ccccc2Cl)c(C(F)(F)F)o1,inactive,
Cc1ccc(S(=O)(=O)Nc2cc3c4c(c2)C(C)C(=O)N4CCC3)cc1 (centres undefined),"inconclusive [inhibitor, single point]",
c1coc(-c2nc3ccccc3nc2-c2ccco2)c1,inactive,
Cc1ccc2nc(N3CCN(Cc4nnnn4C4CCCC4)CC3)c(C#N)cc2c1,"inconclusive [inhibitor, full curve, poor fit]",
C/C(=N\NC(=O)c1cc2ccccc2cc1O)c1ccc(C)o1,"inconclusive [inhibitor, partial curve]",
N=C(N)c1ccc(N=Nc2c(O)ccc3c2[nH]c2ccccc23)cc1,active: 39.8 µM,
CCC(CO)Nc1nc2ccc(Cl)cc2c2ccccc12 (centres undefined),"inconclusive [inhibitor, full curve, poor fit]",

SMILES,Potency,"activity change, negative = inhibition"
COc1cccc(NC(=O)CN(C)C(=O)c2cccc(S(=O)(=O)N3CC4(C)CC3CC(C)(C)C4)c2)c1 (centres undefined),"inconclusive [inhibitor, full curve, poor fit]",
O=C(Nc1cccc(NC(=O)c2cccs2)c1)c1ccc2c(c1)OCO2,"inconclusive [inhibitor, single point]",
CC(COc1ccccc1)OC(=O)Nc1ccccc1 (centres undefined),inactive,
Cc1cnc(N2C(=O)c3ccc([N+](=O)[O-])cc3C2=O)s1,"inconclusive [inhibitor, partial curve]",
N=C1/C(=C\c2ccc(-c3cccc(Cl)c3)o2)C(=O)N=C2SC=C(c3ccccc3)N12,"inconclusive [inhibitor, partial curve]",
OCCN1CCN(CC/C=C2/c3ccccc3Sc3ccc(C(F)(F)F)cc32)CC1,inactive,
O=C(N/N=C/c1ccccn1)c1cccs1,"inconclusive [inhibitor, partial curve, poor fit]",
CCCOC(=O)CSC1=C(C#N)C(c2ccccc2Cl)CC(=O)N1 (centres undefined),,inconclusive: -18.9% [inhibitor]
O=[N+]([O-])c1cccc(N=Nc2ccc(O)cc2O)c1,inactive,
Cc1ccc2nc(-c3ccc(SCC(=O)Nc4nnc(C)s4)nc3)[nH]c2c1,"inconclusive [inhibitor, full curve, poor fit]",
CCOC(=O)c1ccc(-c2ccc3c(c2)CCC3)nc1C,inactive,
Cc1sc2ncnc(N3CCC(C(=O)Nc4ccccc4C(C)(C)C)CC3)c2c1C,"inconclusive [inhibitor, partial curve]",
CCN(c1ccccc1)c1nc(=O)c2cccnc2s1,inactive,
O=C(COc1ccc(CNC[C@H]2O[C@@H](n3ccc(=O)[nH]c3=O)[C@H](O)[C@@H]2O)cc1)Nc1ccccn1,"inconclusive [inhibitor, single point]",
Cc1ccc(C)c(SCC(=O)Nc2cccc(S(=O)(=O)NC3=NCCCCC3)c2)c1,"inconclusive [inhibitor, partial curve]",
Cn1c2ccccc2c(=O)c2ccc(C#Cc3ccccn3)cc21,"inconclusive [inhibitor, partial curve]",
CCCc1nc2c(=O)n(C)c(=O)nc-2n(C)n1,"inconclusive [inhibitor, full curve]",
COc1ccc(OC)c(NC(=O)CN(C)CCOc2ccc(Br)cc2)c1,"inconclusive [inhibitor, full curve, poor fit]",
NC(=O)CSc1nnc(Cn2c(=O)sc3ccccc32)n1CCc1ccccc1,"inconclusive [inhibitor, single point]",
Clc1ccc(/C=N/Nc2ncnc3ccccc23)cc1Cl,"inconclusive [inhibitor, full curve, poor fit]",
